Paper PMC10850161
Results are given in words; binding and its absence hold for the method and conditions named. In cells and extracts the contact can be indirect. Some results given as binding are weak or reduced against the parent protein; the word gives no strength.

Sequences of proteins named here, by UniProt entry; tags and fusion partners are left off.
UniProt O60260: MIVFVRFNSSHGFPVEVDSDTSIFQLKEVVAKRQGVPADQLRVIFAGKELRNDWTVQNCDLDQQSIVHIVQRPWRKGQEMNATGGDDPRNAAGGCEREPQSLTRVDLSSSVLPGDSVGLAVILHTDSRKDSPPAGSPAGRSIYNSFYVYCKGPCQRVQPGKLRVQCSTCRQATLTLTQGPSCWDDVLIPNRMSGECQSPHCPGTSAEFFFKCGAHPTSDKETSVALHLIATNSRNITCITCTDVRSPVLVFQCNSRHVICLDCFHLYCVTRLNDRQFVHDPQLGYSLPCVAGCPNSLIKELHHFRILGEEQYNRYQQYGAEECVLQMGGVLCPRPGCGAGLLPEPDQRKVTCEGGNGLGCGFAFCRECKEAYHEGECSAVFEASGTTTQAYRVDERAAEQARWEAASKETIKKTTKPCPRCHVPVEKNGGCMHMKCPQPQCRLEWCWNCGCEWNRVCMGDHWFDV
UniProt Q14814: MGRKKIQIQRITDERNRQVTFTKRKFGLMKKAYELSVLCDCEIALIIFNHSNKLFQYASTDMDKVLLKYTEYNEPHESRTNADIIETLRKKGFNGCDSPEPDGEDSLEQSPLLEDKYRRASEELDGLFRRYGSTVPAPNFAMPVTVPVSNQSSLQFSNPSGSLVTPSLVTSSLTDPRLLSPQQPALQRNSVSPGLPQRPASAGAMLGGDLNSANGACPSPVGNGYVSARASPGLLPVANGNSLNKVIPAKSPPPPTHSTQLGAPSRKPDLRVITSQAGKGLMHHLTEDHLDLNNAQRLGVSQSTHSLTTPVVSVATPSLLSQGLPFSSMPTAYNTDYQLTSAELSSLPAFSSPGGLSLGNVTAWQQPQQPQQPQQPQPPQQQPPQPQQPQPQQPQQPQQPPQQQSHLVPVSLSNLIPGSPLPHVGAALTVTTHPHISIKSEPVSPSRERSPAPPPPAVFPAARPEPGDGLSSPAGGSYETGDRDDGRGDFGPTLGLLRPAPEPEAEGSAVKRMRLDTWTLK
UniProt Q9BQQ3: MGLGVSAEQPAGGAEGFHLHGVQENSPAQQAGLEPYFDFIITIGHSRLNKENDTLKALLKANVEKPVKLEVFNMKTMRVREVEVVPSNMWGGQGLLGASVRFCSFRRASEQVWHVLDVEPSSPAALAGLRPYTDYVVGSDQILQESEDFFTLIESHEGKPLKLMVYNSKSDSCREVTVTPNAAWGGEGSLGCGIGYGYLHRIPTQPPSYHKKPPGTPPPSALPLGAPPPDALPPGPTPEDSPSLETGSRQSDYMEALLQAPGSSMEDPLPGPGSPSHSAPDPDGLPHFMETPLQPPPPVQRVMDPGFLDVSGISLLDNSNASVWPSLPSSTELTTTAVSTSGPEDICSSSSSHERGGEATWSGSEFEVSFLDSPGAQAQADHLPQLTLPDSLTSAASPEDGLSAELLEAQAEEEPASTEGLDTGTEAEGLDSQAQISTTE

Experiments:
[1] = target: His-tagged Parkin (affinity-purified recombinant, from bacteria) (UniProt O60260); assay: pull-down; His-tagged bait (Parkin or MEF2D) coupled to resin, incubated overnight at 4 °C with lysate of MEFs expressing the Flag-tagged protein; resin washed three times, eluted by boiling in Laemmli buffer; immunoblot with anti-Flag, anti-Parkin, anti-His; only the target purified
His-tagged MEF2D = His-tagged MEF2D (UniProt Q14814); assay: as above
[2] = target: YFP-Parkin, expressed in HeLa cells (UniProt O60260); assay: proximity ligation; HeLa cells, fixed with 4% paraformaldehyde; primary antibodies against the two proteins overnight at 4 °C; PLA kit (Sigma-Aldrich DUO92014); PLA dots per cell counted
[3] = target: T1, GM130 (human (endogenous in HeLa)) (UniProt Q08379); assay: as above
T1 sequence: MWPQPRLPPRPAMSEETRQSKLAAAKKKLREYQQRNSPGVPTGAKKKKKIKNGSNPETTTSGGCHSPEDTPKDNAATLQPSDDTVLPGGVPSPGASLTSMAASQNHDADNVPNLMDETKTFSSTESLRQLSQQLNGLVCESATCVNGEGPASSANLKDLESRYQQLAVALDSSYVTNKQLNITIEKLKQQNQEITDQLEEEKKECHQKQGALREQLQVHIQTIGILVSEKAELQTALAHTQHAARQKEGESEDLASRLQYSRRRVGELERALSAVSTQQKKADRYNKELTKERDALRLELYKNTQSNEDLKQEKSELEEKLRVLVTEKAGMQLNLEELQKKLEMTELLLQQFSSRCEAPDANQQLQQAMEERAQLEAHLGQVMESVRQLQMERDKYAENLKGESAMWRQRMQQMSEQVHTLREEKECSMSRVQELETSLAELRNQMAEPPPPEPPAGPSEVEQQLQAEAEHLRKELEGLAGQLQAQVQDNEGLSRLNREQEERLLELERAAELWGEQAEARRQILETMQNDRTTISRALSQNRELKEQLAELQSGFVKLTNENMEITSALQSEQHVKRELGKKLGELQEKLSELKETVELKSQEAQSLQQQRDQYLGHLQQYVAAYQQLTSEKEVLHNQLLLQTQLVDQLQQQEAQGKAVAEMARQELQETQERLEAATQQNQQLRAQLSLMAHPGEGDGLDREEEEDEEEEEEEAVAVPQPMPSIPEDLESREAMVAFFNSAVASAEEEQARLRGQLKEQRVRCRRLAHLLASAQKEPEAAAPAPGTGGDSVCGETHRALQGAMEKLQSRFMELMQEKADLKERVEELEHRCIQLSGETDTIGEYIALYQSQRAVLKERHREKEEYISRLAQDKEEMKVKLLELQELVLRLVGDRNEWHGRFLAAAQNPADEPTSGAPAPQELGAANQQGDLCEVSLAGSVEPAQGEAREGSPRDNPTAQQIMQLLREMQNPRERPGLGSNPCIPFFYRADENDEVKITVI

[4] = target: mCherry-Parkin, expressed in HeLa cells (UniProt O60260); assay: as above

For “Flag-tagged Calcineurin (CaN-Flag), expressed in MEFs (from UniProt P16298 1-524) (enzyme)”, the binding [1] was “binds” and the binding (His-tagged MEF2D) was “no binding”.

For GRASP65 (from UniProt Q9BQQ3 1-440), the binding [2] was “no binding” and the binding [3] was “binds”.

“PPP3CB-Flag (CaN-FLAG), expressed in HeLa cells (from UniProt P16298 1-524) (enzyme)” was tested, and the binding [4] was “binds”.
